The record followed here is PMC12040169 (PLOS Biology, 2025).

The list shows a part of the results.

This assay concerns T1, C. trachomatis L2/434/Bu expressing GFP (CTL2-GFP).
T1 construct: L2/434/Bu GFP intracellular growth in HeLa cells
Set-up: species or system HeLa; C. trachomatis total inclusion area by high-content imaging, normalised to DMSO. As to conditions: total inclusion area; 28.5 h, 10 µM; inhibitor. In outline: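 Post-fluorescence-read fixation, DNA staining with Hoechst and high-content imaging; GFP inclusion area and number per well, and nuclei counts, used as proxies for bacterial growth and host viability.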
For `O=[N+]([O-])c1ccc2c(c1)nnn2CN1CCCCC1` [CBK261663], the “% of control remaining” value was 101.136.
Turning to `O=C(NC1CCCCC1)c1cc(NC(=O)c2ccccc2C(=O)O)ccc1Cl` [CBK287062], the “% of control remaining” value turned out to be 88.9994.
For `COc1ccc(C2CC(c3ccc(Cl)cc3)Nc3ncnn32)c(OC)c1` (stereo not drawn) [CBK287848], the “% of control remaining” value amounted to 124.125.
With `Cc1cc(C)c(-c2csc(NS(=O)(=O)c3cccc(C(=O)O)c3)n2)cc1C` [CBK296698], the “% of control remaining” value is on record as 103.774.
Under `CC1CCC(C(N)=O)CN1C(=O)c1cc(Br)c[nH]1` (stereo not drawn) [CBK305769] stands 58.0587; under `Cc1nn(C)c(C)c1CCNC(=O)CC1CCCCN1C` (stereo not drawn) [CBK281774], 110.753; under `O=C1CCCN1CCCNc1ncnc2c1cnn2-c1ccc(Cl)cc1` [CBK265838], 0.
Turning to `Cc1ccc(-c2n[nH]c(=S)n2CCC(=O)NC(C)c2ccc3c(c2)CCCC3)cc1` (stereo not drawn) [CBK295666], the “% of control remaining” value is listed as 97.4484.
`O=C(CSc1nc2ccccc2c(=O)[nH]1)Nc1ccc(Cl)c(C(=O)O)c1` [CBK268246]: the “% of control remaining” value is given as 101.834.
On to `O=C(NCCN1CCOCC1)c1ccc(-c2ccco2)nc1NCc1cccnc1` [CBK076112], for which the “% of control remaining” value is listed as 92.3969.
For `O=C(/C=C/c1ccccc1)Nc1cccc(C(=O)O)c1` [CBK287193], the “% of control remaining” value amounted to 91.6577.
Under `CCC(=O)Nc1nonc1-c1nc2ccccc2n1Cc1ccc(F)cc1Cl` [CBK269608] stands 107.39; under `Cc1nc(C2CCN(C(=O)c3cccnc3)CC2)c2sccn12` [CBK282233], 83.9349.
On to `CC(C)C(=O)N(C)c1nnc(-c2cccnc2)s1` [CBK007554], for which the “% of control remaining” value was 65.4881.
As to `O=c1ccc(-c2ccccc2)nn1CC1CCNCC1` [CBK284203], the “% of control remaining” value worked out at 43.4302.
Under `COc1ccccc1-c1nccnc1N[C@H]1CCN(Cc2ccccc2)C1` [CBK037626] stands 81.1741.
Under `O=C(N/N=C\c1c(F)cccc1Cl)c1ccncc1` [CBK023263] stands 77.5676.
`O=C(C1COc2ccccc2O1)N1CCN(c2ncccn2)CC1` (stereo not drawn) [CBK144502]: the “% of control remaining” value is 79.8074.
For the molecule `Cc1cccc(CN2CCC(N(C)Cc3nnc(C4CC4)n3C)C2)c1` (stereo not drawn) [CBK305165], the “% of control remaining” value was found to be 46.5406.
Under `O=S(=O)(Nc1ccccn1)c1cccs1` [CBK043773] stands 84.8801; under `Fc1ccc(-c2cncc(NCCc3cccnc3)n2)cc1Cl` [CBK065745], 90.4794; under `O=C(CC1C(=O)NCCN1C(=O)Nc1ccc(OCc2ccccc2)cc1)Nc1ccc(F)cc1` (stereo not drawn) [CBK086203], 36.9275.
Under `Cc1nn(C)c(C)c1NC(=O)c1ncoc1-c1ccc(F)cc1` [CBK282359] stands 60.4807; under `CN1CCCN(c2cncc(-c3cc4ccccc4o3)n2)CC1` [CBK065997], 148.49; under `O=S(=O)(c1cnc(Cl)c(Br)c1)N1CCC2(CC1)OCCO2` [CBK044070], 84.6666.
Under `CS(=O)(=O)c1ccc(CN2C(=O)CC3(CCN(C(=O)c4ccc([N+](=O)[O-])cc4)CC3)C2=O)cc1` [CBK155019] stands 97.7078; under `CN(CC(=O)NCC1CCN(c2cccc(Cl)c2)C1)Cc1cccnc1` (stereo not drawn) [CBK306761], 73.4796.
Take `Cc1ccc(-c2cc(C(=O)NCCCN3CCOCC3)c3cc(Cl)ccc3n2)o1` [CBK267737]: the “% of control remaining” value came to 111.593.
The result for `CC(=O)C1=C(O)C(=O)N(CCCC(=O)O)C1c1ccc(Br)cc1` (stereo not drawn) [CBK286784] reads 85.3709; that for `Cc1cc(C)nc(-n2ncc3c2CC(c2cccs2)CC3=O)n1` (stereo not drawn) [CBK269371], 113.048; that for `Cc1ccc2nc(C)cc(C(=O)OCc3ccc(C(N)=O)cc3)c2c1` [CBK296676], 103.211.
For `CNc1cc(C(=O)N[C@@H]2CCOC[C@H]2Oc2ccc(CO)cc2)ccn1` [CBK306606], the “% of control remaining” value is 92.9011.
In the case of `O=C1C(=CNCCC(c2ccccc2)c2ccccc2)C(=O)c2ccccc21` [CBK262987], the “% of control remaining” value came out at 113.664.
With `O=C(O)CCCN1C(=O)C(O)=C(C(=O)c2ccc([N+](=O)[O-])cc2)C1c1ccccc1F` (stereo not drawn) [CBK263810], the “% of control remaining” value amounted to 72.1033.
Under `O=C(Nc1cccnc1N1CCNCC1)c1cc(F)cc(F)c1` [CBK029420T] stands 93.3271.
With `CN1CCN(C(=O)c2ccc(-c3ccco3)nc2N(C)C)CC1` [CBK106121], the “% of control remaining” value stood at 99.9815.
Under `O=C(Nc1ccccc1Nc1cc(-c2ccccc2)nn1-c1ccccc1)c1ccc(Br)cc1` [CBK261297] stands 66.658; under `COc1cccc([C@H]2CN(C(=O)c3ccccc3)[C@@H]3CCN(Cc4ccsc4)C[C@H]23)c1` [CBK285611], 76.8381; under `COc1ccccc1CCC(=O)NCc1cnc(SC)n1C` [CBK306926], 42.2977.
Under `O=C(CNC(=O)c1ccccc1)N/N=C/c1ccc(C(=O)O)cc1` [CBK261976] stands 95.0475.
Under `CS(=O)(=O)c1ccc(Cn2ccnc(N3CCN(C(=O)c4ccc5occc5c4)CC3)c2=O)cc1` [CBK153777] stands 92.6752; under `CC(C)N(C(=O)c1ccccc1-c1cnc2nncn2c1)C(C)C` [CBK306701], 59.2879.
As for `CC(C)CN(CC(=O)NC1(c2ccccc2)CCC1)C(=O)N(C)C` [CBK062704], the “% of control remaining” value came to 20.6556.
The result for `O=C(c1ccc(F)cc1)N1CCC(c2cc3cccnc3[nH]2)CC1` [CBK285001] reads 110.753; that for `CCC(=O)N1CCC[C@H]1Cn1nc(-c2ccc(F)cc2)ccc1=O` [CBK284253], 90.8547.
As to `Cn1ccnc1C1(O)CC2CCC(C1)N2C(=O)Nc1ccccc1F` (stereo not drawn) [CBK284178], the “% of control remaining” value turned out to be 91.7511.
Regarding `Cc1ccc(-c2cc(C3CCN(C(=O)c4cnn(C)c4)C3)[nH]n2)cc1` (stereo not drawn) [CBK285266], the “% of control remaining” value is 89.6123.
Under `O=C(/C=C/c1ccccc1)NC(=S)Nc1ccc2oc(-c3ccncc3)nc2c1` [CBK263687] stands 92.3761; under `CO[C@@H]1CO[C@H]2[C@@H]1OC[C@@H]2NC(=O)Nc1ccc(C(C)=O)cc1` [CBK289462], 116.148.
Under `Nc1nonc1-c1noc(-c2cccc(Cl)c2)n1` [CBK026691] stands 33.5093; under `O=C(C1CCC1)N1CCC(c2nc(Cc3cccs3)no2)C1` (stereo not drawn) [CBK283028], 118.229.
